Laboratory results published in the supplement of paper PMC8047034.
Structures can show the parent of a compound that is named as a salt. This is one part of the list. Many values rest on one well or one pass, so single values are uncertain.

Tests used:
[1] = tested on: OVCAR4; assay: log2 surviving fraction (library drug vs vehicle, or drug + carboplatin vs carboplatin alone; relative to plate median); ovarian cancer lines: OVCAR4 is platinum-sensitive and Ov4Carbo platinum-resistant; higher = more cell survival; settings: library drug concentration 10 µM, 7 days
[2] = tested on: Ov4Carbo; assay: as above; settings: library drug concentration 10 µM, 7 days

| Structure (SMILES) | log2 surviving fraction ([1]; carboplatin co-treatment 0 µM) | log2 surviving fraction ([1]; carboplatin co-treatment 5 µM) | log2 surviving fraction ([2]; carboplatin co-treatment 0 µM) | log2 surviving fraction ([2]; carboplatin co-treatment 5 µM) |
| --- | --- | --- | --- | --- |
| CCOC(=O)c1ncn2c1CN(C)C(=O)c1cc(F)ccc1-2 [Flumazenil] | 1.06 | 0.512 | 0.104 | -0.423 |
| Nc1cc(N2CCCCC2)nc(N)[n+]1[O-] [Minoxidil] | 0.912 | 1.15 | 0.335 | 0.236 |
| NCCCC(O)(P(=O)(O)O)P(=O)(O)O [Alendronate (Fosamax)] | -0.284 | 0.00338 | 0.695 | -0.167 |
| NC(=O)c1cnccn1 [Pyrazinamide (Pyrazinoic acid amide)] | -0.233 | 0.939 | -0.112 | -0.0636 |
| COc1ccccc1N1CCN(CC(O)COc2cccc3ccccc23)CC1 (configuration not stated) [Naftopidil (Flivas)] | 0.236 | -0.699 | -0.834 | -1.54 |
| CC(C(=O)O)c1cccc(Oc2ccccc2)c1 (configuration not stated) [Fenoprofen calcium hydrate] | 0.695 | 0.139 | -0.614 | -0.00879 |
| COc1ccc2cc1Oc1ccc(cc1)C[C@H]1c3c(cc4c(c3Oc3cc5c(cc3OC)CCN(C)[C@@H]5C2)OCO4)CCN1C [Cepharanthine] | -6.59 | -5.72 | -6.47 | -6.54 |
| COc1cc(/C=C/C(=O)CC(=O)/C=C/c2ccc(O)c(OC)c2)ccc1O [Curcumin] | -3.65 | -2.24 | -1.11 | -1.61 |
| COc1cc(C(C)=O)ccc1OCCCN1CCC(c2noc3cc(F)ccc23)CC1 [Iloperidone (Fanapt)] | 0.371 | 0.184 | 0.133 | -0.0354 |
| OC[C@H]1O[C@H](O[C@]2(CCl)O[C@H](CCl)[C@@H](O)[C@@H]2O)[C@H](O)[C@@H](O)[C@H]1Cl [Sucralose] | -0.32 | 0.472 | 0.0521 | -0.671 |
| O=c1n(CCCN2CCN(c3cccc(Cl)c3)CC2)nc2ccccn12 [Trazodone hydrochloride (Desyrel)] | 0.197 | 0.201 | 0.464 | 0.37 |
| O=C(O)Cc1cc(I)c(Oc2ccc(O)c(I)c2)c(I)c1 [Tiratricol] | -0.886 | -0.0736 | -1.09 | -0.371 |
| CCCOc1ccc2[nH]c(NC(=O)OC)nc2c1 [Oxibendazole] | -6.34 | -5.52 | -4.48 | -4.66 |
| Clc1ccc(C(c2ccccc2Cl)C(Cl)Cl)cc1 (configuration not stated) [Mitotane (Lysodren)] | 0.413 | -0.913 | 0.0344 | -0.0164 |
| COc1ccccc1OCCNCC(O)COc1cccc2[nH]c3ccccc3c12 (configuration not stated) [Carvedilol] | -1.21 | -0.974 | -1.28 | -1.06 |
| CC1CCc2c(N3CCC(O)CC3)c(F)cc3c(=O)c(C(=O)O)cn1c23 (configuration not stated) [Nadifloxacin] | 1.31 | 1.21 | 0.586 | 0.462 |
| CCN1CCN(c2cc3c(cc2F)c(=O)c(C(=O)O)cn3C2CC2)CC1 [Enrofloxacin] | 0.99 | 0.589 | 1.38 | 0.481 |
| Cc1cc(C2CCCCC2)n(O)c(=O)c1 [Ciclopirox (Penlac)] | -8.18 | -6.76 | -7.39 | -6.9 |
| CN(C)C(=O)C(CCN1CCC(O)(c2ccc(Cl)cc2)CC1)(c1ccccc1)c1ccccc1 [Loperamide hydrochloride] | -5.78 | -4.95 | -5.19 | -4.52 |
| C=CCNC(N)=S [Allylthiourea] | 0.35 | 0.39 | 0.98 | 1.21 |
| CC(CN(C)C)CN1c2ccccc2CCc2ccccc21 (configuration not stated) [Trimipramine Maleate] | -1.41 | 1.02 | -1.99 | -1.93 |
| Nc1nc(=O)n([C@@H]2CS[C@H](CO)O2)cc1F [Emtricitabine (Emtriva)] | 0.42 | 0.692 | 0.76 | 0.991 |
| CC1=C(C(=O)OC(C)C)C(c2cccc([N+](=O)[O-])c2)C(C(=O)OC2CN(C(c3ccccc3)c3ccccc3)C2)=C(N)N1 (configuration not stated) [Azelnidipine] | 0.745 | 0.0647 | 1.06 | -0.515 |
| C[C@H](CS)C(=O)N1CCC[C@H]1C(=O)O [Captopril (Capoten)] | 1.79 | -0.437 | 1.02 | 1.71 |
| COc1ccc(O)cc1 [Mequinol] | -1.01 | -1.24 | -0.152 | -1.73 |
| N#Cc1c(N(CC(=O)O)CC(=O)O)sc(C(=O)O)c1CC(=O)O [Strontium ranelate (Protelos)] | -0.696 | -0.559 | 0.839 | 1.13 |
| CCOC(=O)c1ccc(OC(=O)CCCCCNC(=N)N)cc1 [Gabexate mesylate] | 0.872 | 0.482 | -0.147 | 0.204 |
| c1ccc(CN(CC2=NCCN2)c2ccccc2)cc1 [Antazoline HCl] | 0.301 | 0.382 | 0.733 | -0.714 |
